# Reference: PubChem BioAssay AID2202238 (Ras Initiative Chemistry Research Team, Frederick National …, 2025)
# Among all 2,200 compounds or so, fewer than 10 were called active. The list shows a part of the results. Where no call is shown, the source marks the result inconclusive.
# Biological target: GTPase KRas (Homo sapiens) (UniProt P01116)
# Experiment: Cysteine mutants labelled by reactive fragments (mass read-out) (AID 2202238)
# Set-up: protein at 5 µM with 500 µM competing thiol for 1.5 h
# Conditions: KRAS G12D cysteine mutants, disulfide tethering, MALDI-TOF labeling; stronger effect = higher value; H27C mutant labeling; fragment at 500 µM
# Chain of UniProt P01116 (P01116 whole entry, looked up, the tested form may be a part): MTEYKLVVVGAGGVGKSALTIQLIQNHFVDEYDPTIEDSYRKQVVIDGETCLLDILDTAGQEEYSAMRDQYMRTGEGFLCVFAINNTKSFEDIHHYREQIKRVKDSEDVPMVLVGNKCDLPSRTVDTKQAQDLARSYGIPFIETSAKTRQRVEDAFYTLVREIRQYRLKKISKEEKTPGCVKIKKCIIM
row,Structure (SMILES),percent labeling [%]
1,CCn1nccc1[C@@H]1OCC[C@H]1C(=O)NCCS,26.1
2,O=C(CCS)N1CCn2c(Cc3ccccc3F)nnc2C1,36.1
3,O=C(Cc1ccc(OCc2ccccn2)cc1)NCCS,40.6
4,CC1(C(=O)NCCS)CCCN1C(=O)c1ccccc1 (stereo not given),38
5,N#Cc1nc(-c2ccco2)oc1N1CCC(C(=O)NCCS)CC1,23.1
6,O=C(NCCS)c1nccnc1-c1nc2ccccc2s1,29.1
7,Cc1cc(C2(C(=O)NCCS)CCOCC2)on1,35
8,O=C(NCCS)C1CCN(c2ccccc2F)C1 (stereo not given),31.2
9,Cn1ccc(C2CCN(C(=O)CCS)CC2)n1,40.8
10,O=C(NCCS)c1cnoc1-c1cccs1,12.5
11,O=C(CCCc1ccc2c(c1)CC(=O)N2)NCCS,36.1
12,O=C(CCS)NCc1nc(-c2ccc(F)cc2)n[nH]1,39.1
13,O=C(CCS)NCc1nc(C(F)(F)F)n2c1CCCC2,40.6
14,O=C(NCCS)c1ccc(Oc2cc(Cl)ccc2Cl)cc1,35.8
15,CN(C)C1CC2(CC(NC(=O)CCS)C2)C1 (stereo not given),55.2
16,O=C(NCCS)C(c1ccccc1)N1CCc2ccccc21 (stereo not given),14.8
17,Cc1c(CN(CC(F)F)C(=O)CCS)cnn1C,36.8
18,O=C(NC1(C(=O)NCCS)CCCC1)c1n[nH]c2ccccc12,26.8
19,Cc1nc(CN2CCC(C(=O)NCCS)CC2)cs1,46.4
20,CCOc1cc2c(c3[nH]c(C(=O)NCCS)cc13)OC(C)C2 (stereo not given),22.6
21,COC(=O)C1(C2=CCN(C(=O)CCS)CC2)CC1,27.3
22,NC(=O)c1ccc(N2CCN(C(=O)CCS)CC2)nc1,50.9
23,O=C(NCCS)c1cc2cccc(Cl)c2o1,30.2

row,Structure (SMILES),percent labeling [%]
1,CC1(C)C(=O)Nc2cc(C(=O)NCCS)ccc21,50.1
2,Cc1nc2cc(C(=O)NCCS)ccc2n1Cc1ccsc1,32.6
3,O=C(Cc1ccccc1Br)NCCS,35.7
4,O=C(NCCS)C1CCc2nc[nH]c2C1 (stereo not given),49.4
5,O=C(CCS)NCCc1noc(COc2ccc(Cl)cc2)n1,34.6
6,O=C(NCCS)c1cccn1CCN1CCOCC1,41.2
7,O=C(NC(Cc1ccccc1)C(=O)NCCS)c1ccccc1 (stereo not given),23.1
8,CN(C(=O)CNC(=O)CCS)C1CCCCC1,24.9
9,O=C(CCS)NCC12COCCN1C(=O)COC2 (stereo not given),27.9
10,CN1CCN(c2nccnc2CNC(=O)CCS)CC1=O,25.5
11,COc1ccccc1Cc1noc(C2CCN(C(=O)CCS)CC2)n1,33.6
12,O=C(NCCS)[C@H]1CCCN1C(=O)c1ccccc1,33.8
13,Cc1cnc(C2CCN(C(=O)CCS)CC2)s1,44
14,CS(=O)(=O)c1cccc(C(NC(=O)CCS)c2ccc(F)cc2F)c1 (stereo not given),31.9
15,O=C(CC1CN(Cc2ccccc2)CCO1)NCCS (stereo not given),41.2
16,O=C(COc1c(Cl)cccc1Cl)NCCS,40.5
17,Cc1sc2nc(CN3CCN(C(=O)CCS)CC3)[nH]c(=O)c2c1C,35.6
18,O=C(NCCS)C1(Cc2cccc(Cl)c2)CCCCC1,21.2
19,COCCn1cc(C#N)c(NC(=O)CCS)n1,35.1
20,Cc1nn(-c2ccccc2)c2ncc(C(=O)NCCS)cc12,23.2
21,O=C(CCS)N1CCCc2c(F)cc(F)cc21,33.8
22,O=C(CCS)NC1COc2ccccc2C1O (stereo not given),28.4
23,O=C(NCCS)c1ccc2c(c1)CCCN2C(=O)c1ccccc1,28.2

row,Structure (SMILES),percent labeling [%]
1,Cc1c(C(=O)NCCS)c(=O)oc2ccc(O)cc12,41.7
2,CC(C)(NC(=O)c1ccccc1)C(=O)NCCS,20.9
3,CC(C)(C(=O)NCCS)c1csc(-c2cccs2)n1,33.4
4,O=C(NCCS)c1cc2c(Cl)cncc2s1,35.5
5,O=C(CCS)Nc1ccc(OCc2cccc(F)c2)c(F)c1,25
6,O=C(NCCS)c1cnn(Cc2ccccc2Cl)c1,46.6
7,O=C(NCCS)C1CCN(S(=O)(=O)c2cccnc2)CC1,35.1
8,O=C(CCS)NCc1cc(-c2ccc3c(c2)OCCO3)on1,33.2
9,O=C(NCCS)c1cc(Br)c2nccnc2c1,34.1
10,COc1ccc2c(c1)C(CCNC(=O)CCS)=CC2,28.8
11,O=C(NCCS)c1ccc(Cn2cccn2)cc1,45.3
12,O=C(CCS)Nc1ccc(-n2cncn2)nc1,39.9
13,Cc1cc2scc(CC(=O)NCCS)c2s1,27.8
14,COC(=O)c1ccc2[nH]cc(C3CCN(C(=O)CCS)CC3)c2c1,24.7
15,O=C(CCS)NCc1cnn(-c2ccccc2)c1,29.9
16,O=C(NCCS)c1csc(CCc2ccccc2)n1,30.1
17,CC(C(=O)NCCS)n1ccnc1-c1ccccc1 (stereo not given),33
18,O=C(NCCS)C1COc2cc(F)ccc2C1 (stereo not given),22.9
19,CC(C(=O)NCCS)c1cn(C)c2ccccc12 (stereo not given),26
20,O=C(CCS)N(Cc1ccco1)c1ccccc1,22.9
21,O=C(CCS)N1CCC(Oc2ccccn2)CC1,46.1
22,O=C(CCS)NCc1cnc2ccc(Br)cn12,41.7
23,COc1ccc(C2(NC(=O)CCS)CCC2)cn1,33.8

row,Structure (SMILES),percent labeling [%]
1,Cc1nn(-c2ccc(Cl)cc2)c(C)c1CC(=O)NCCS,38.7
2,O=C(CCS)NCCc1csc(-c2ccc(Cl)cc2)n1,32.2
3,O=C(CCS)N1CCN(CCn2cccn2)CC1,29.6
4,O=C(CC[C@@H]1CC[C@H](C(F)(F)F)O1)NCCS,29.6
5,CC(C(=O)NCCS)n1ccc(C(F)(F)F)n1 (stereo not given),24.5
6,CN(C(=O)c1ccc(C(=O)NCCS)cc1)c1ccccc1,41.3
7,O=C(NCCS)C1(n2cnnn2)CCCCC1,34.1
8,COc1ccc(C)c2[nH]c(C(=O)NCCS)cc12,26.4
9,Cn1ccc(N(Cc2ccccc2)C(=O)CCS)n1,32.4
10,Cn1c(CNC(=O)CCS)cc(=O)n(C)c1=O,27.9
11,O=C(NCCS)c1cccn1-c1ccc2c(c1)OCCO2,34.1
12,Cc1nn(C)c(N(C)C)c1CNC(=O)CCS,29.1
13,O=C(Cn1nc2n(c1=O)CCCCC2)NCCS,30.2
14,COc1cc(C(=O)NCCS)cc(OC)c1O,42
15,Cc1cc(C(=O)NCCS)nn1-c1ccccc1F,42.8
16,O=C(Nc1ccccc1C(=O)NCCS)c1ccccc1,23
17,CC1(Cc2cc(Cl)cs2)CCCN1C(=O)CCS (stereo not given),44.6
18,O=C1CCC(N2Cc3cc(C(=O)NCCS)ccc3C2=O)C(=O)N1 (stereo not given),42.3
19,O=C(CCS)NC1CC(Cn2cncn2)C1 (stereo not given),32.3
20,O=C(CCS)Nc1ccc(=O)n(Cc2ccccc2)c1,41.8
21,O=C(NCCS)C1CCN(S(=O)(=O)c2ccccc2-c2ccccc2)CC1,18.4
